{"source": "paper PMC4336329", "about": "(PLoS ONE, 2015)", "note": "The campaign covered roughly 310,000 compounds. About 14,000 (4.5%) showed an effect of 50% or more. Effects have a minus sign here. The list shows a part of the results.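 Further: peak tail current of the secondary pulse compared with the same well before compound.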", "data": [{"target": "human ether-à-go-go-related gene (hERG) potassium channel (human, UniProt Q12809)", "sequence (Q12809 whole entry, looked up)": "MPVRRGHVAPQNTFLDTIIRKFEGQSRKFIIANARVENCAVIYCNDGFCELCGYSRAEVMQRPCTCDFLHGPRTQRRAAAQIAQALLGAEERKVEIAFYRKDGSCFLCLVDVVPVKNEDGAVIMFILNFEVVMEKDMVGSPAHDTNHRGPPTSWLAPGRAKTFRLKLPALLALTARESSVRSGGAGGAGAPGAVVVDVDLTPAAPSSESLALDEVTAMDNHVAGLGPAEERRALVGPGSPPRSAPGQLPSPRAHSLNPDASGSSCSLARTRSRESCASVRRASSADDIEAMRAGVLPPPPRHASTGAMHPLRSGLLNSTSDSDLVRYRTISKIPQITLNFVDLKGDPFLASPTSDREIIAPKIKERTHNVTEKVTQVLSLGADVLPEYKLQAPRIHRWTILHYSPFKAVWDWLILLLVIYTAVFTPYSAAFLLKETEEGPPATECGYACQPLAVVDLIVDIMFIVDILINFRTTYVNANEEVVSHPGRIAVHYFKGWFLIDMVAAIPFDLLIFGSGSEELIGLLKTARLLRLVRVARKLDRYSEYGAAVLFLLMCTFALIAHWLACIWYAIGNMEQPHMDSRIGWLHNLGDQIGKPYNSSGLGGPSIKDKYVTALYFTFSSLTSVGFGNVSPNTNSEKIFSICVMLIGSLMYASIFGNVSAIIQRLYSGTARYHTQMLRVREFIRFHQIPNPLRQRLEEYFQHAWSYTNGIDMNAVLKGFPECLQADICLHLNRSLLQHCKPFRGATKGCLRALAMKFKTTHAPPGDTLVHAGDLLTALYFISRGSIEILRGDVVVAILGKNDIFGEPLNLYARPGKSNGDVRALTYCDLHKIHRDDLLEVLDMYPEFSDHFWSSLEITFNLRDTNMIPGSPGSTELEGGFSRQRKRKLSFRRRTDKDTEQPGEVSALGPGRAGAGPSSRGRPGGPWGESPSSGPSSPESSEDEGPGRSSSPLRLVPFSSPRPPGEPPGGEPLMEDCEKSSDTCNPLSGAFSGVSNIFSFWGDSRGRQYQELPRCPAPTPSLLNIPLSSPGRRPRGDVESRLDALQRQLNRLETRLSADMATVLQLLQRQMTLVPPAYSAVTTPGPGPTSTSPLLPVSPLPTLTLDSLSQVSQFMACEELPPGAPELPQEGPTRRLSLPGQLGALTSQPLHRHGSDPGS", "test": "primary screen, population patch clamp on CHO cells stably expressing hERG", "units": {"hERG current change (%, negative = inhibition) at 10uM": "%"}, "values": [{"smiles": "Cn1nccc1C(=O)Nc1ccc2c(c1)OCO2", "hERG current change (%, negative = inhibition) at 10uM": 10.8}, {"smiles": "Cc1ccc(S(=O)(=O)NCCS(=O)(=O)N2CCN(c3ccc(F)cc3)CC2)cc1", "hERG current change (%, negative = inhibition) at 10uM": -19}, {"smiles": "COc1ccc(C2C3C=CCC(c4cccc(-c5ccc(C)cc5)c4)C3C(=O)N2Cc2ccccc2)cc1Cl", "note": "(stereo not shown)", "hERG current change (%, negative = inhibition) at 10uM": 10.5}, {"smiles": "COc1ccc(S(=O)(=O)N2CCCCCC2)cc1C(=O)N1CCN(c2ccccc2C)CC1", "hERG current change (%, negative = inhibition) at 10uM": -48}, {"smiles": "Cc1ccc(NC(=O)/C(=C\\c2cccs2)NC(=O)c2ccccc2)cc1", "hERG current change (%, negative = inhibition) at 10uM": -3.84}, {"smiles": "O=C(CSc1nc2ccccc2[nH]1)c1ccccc1F", "hERG current change (%, negative = inhibition) at 10uM": 11.1}, {"smiles": "O=C(NCCO)/C(=C\\c1ccc2c(c1)OCO2)NC(=O)c1ccc(Br)cc1", "hERG current change (%, negative = inhibition) at 10uM": -51.9}, {"smiles": "COc1ccc(NC(=O)c2oc3ccccc3c2NC(=O)C(C)(C)C)cc1", "hERG current change (%, negative = inhibition) at 10uM": 11.3}, {"smiles": "O=C(O)c1oc2ccccc2c1CSc1ccc(Cl)cc1", "hERG current change (%, negative = inhibition) at 10uM": 17.3}, {"smiles": "O=C(N/N=C/c1ccccc1)c1ccc(-c2ccccc2)cc1", "hERG current change (%, negative = inhibition) at 10uM": 22.2}, {"smiles": "Cc1cc(NC(=O)/C=C/c2ccc(Cl)cc2)no1", "hERG current change (%, negative = inhibition) at 10uM": 1.12}, {"smiles": "Cc1cc(C)n(-c2nc3c(c(=O)[nH]c(=O)n3C)n2C(C)C)n1", "hERG current change (%, negative = inhibition) at 10uM": 21.4}, {"smiles": "O=C(CCCOc1ccc(Cl)cc1Cl)N/N=C/c1ccco1", "hERG current change (%, negative = inhibition) at 10uM": -4.05}, {"smiles": "O=C([O-])c1ccc(-n2nc(C(F)(F)F)cc2-c2cccs2)cc1.[Na+]", "hERG current change (%, negative = inhibition) at 10uM": 20.6}, {"smiles": "COc1ccc(NC2CCCN(Cc3cccc4cnccc34)C2)cc1OC", "note": "(stereo not shown)", "hERG current change (%, negative = inhibition) at 10uM": -11.2}, {"smiles": "COc1cc(OCC(N)=O)cc(OC)c1OC", "hERG current change (%, negative = inhibition) at 10uM": -20}, {"smiles": "Cc1ccc(NC(=O)c2cncc(Br)c2)c([N+](=O)[O-])c1", "hERG current change (%, negative = inhibition) at 10uM": -7.77}, {"smiles": "O=C(CN(c1ccc(F)cc1)S(=O)(=O)c1ccc2c(c1)OCCO2)NCc1ccccc1", "hERG current change (%, negative = inhibition) at 10uM": -2.19}, {"smiles": "COc1cccc(Cn2cccc(NC(=O)Nc3ccc(C#N)cc3)c2=O)c1", "hERG current change (%, negative = inhibition) at 10uM": 15.9}, {"smiles": "O=C(Cn1c(=O)c(=O)n(Cc2ccccc2)c2ccc(Cl)cc21)Nc1ccc(F)cc1F", "hERG current change (%, negative = inhibition) at 10uM": 21.3}, {"smiles": "CCCC(=O)NC(C)c1nc2ccccc2n1C", "note": "(stereo not shown)", "hERG current change (%, negative = inhibition) at 10uM": 6.47}, {"smiles": "CCOC(=O)CN(C(=O)CSc1nnc(Cc2ccccc2)n1-c1ccc(C)cc1)c1ccccc1", "hERG current change (%, negative = inhibition) at 10uM": -59.2}, {"smiles": "CCCCNC(=O)C1CCN(c2nc(C)cc(C)n2)CC1", "hERG current change (%, negative = inhibition) at 10uM": 17}, {"smiles": "c1csc(-n2nc3ccccc3n2)c1", "hERG current change (%, negative = inhibition) at 10uM": -13.4}, {"smiles": "O=c1c2ccccc2nc(CSc2ncnc3nc[nH]c23)n1-c1ccccc1Cl", "hERG current change (%, negative = inhibition) at 10uM": 10}, {"smiles": "COc1cc(/C=C2\\SC(=S)N(CC(=O)O)C2=O)ccc1OC(=O)c1ccco1", "hERG current change (%, negative = inhibition) at 10uM": 12.1}, {"smiles": "c1ccc2c(-n3cnnn3)cccc2c1", "hERG current change (%, negative = inhibition) at 10uM": -1.76}, {"smiles": "CCCCCOC(=O)Cc1c(O)c2ccccc2[nH]c1=O", "hERG current change (%, negative = inhibition) at 10uM": 12.8}, {"smiles": "Cc1c(C(=O)NCCNc2ncc(C(F)(F)F)cc2Cl)cccc1[N+](=O)[O-]", "hERG current change (%, negative = inhibition) at 10uM": 5.52}, {"smiles": "CCOC(=O)C(N)CSC1CC(=O)N(c2ccc(C(=O)OC)cc2)C1=O", "note": "(stereo not shown)", "hERG current change (%, negative = inhibition) at 10uM": -5.97}, {"smiles": "CC1=NN(C(=O)c2cc(C)nn2C)C(O)(C(F)(F)F)C1", "note": "(stereo not shown)", "hERG current change (%, negative = inhibition) at 10uM": 30.4}, {"smiles": "COC(=O)c1sc(C(C)(C)C)cc1CS(=O)(=O)c1ccccn1", "hERG current change (%, negative = inhibition) at 10uM": 6.34}, {"smiles": "COc1ccc(-c2nnc(SCc3ncc(-c4ccccc4)o3)o2)cc1", "hERG current change (%, negative = inhibition) at 10uM": 9.01}, {"smiles": "Cc1ccccc1C(=O)NNC(=O)/C=C\\C(=O)O", "hERG current change (%, negative = inhibition) at 10uM": -11.1}, {"smiles": "O=C(Nc1ccccc1F)c1coc(=O)c(Br)c1", "hERG current change (%, negative = inhibition) at 10uM": 5.87}, {"smiles": "Cc1ccc(-n2sc3ccccc3c2=O)cc1", "hERG current change (%, negative = inhibition) at 10uM": 29.4}, {"smiles": "Cc1nnc(N/N=C/c2c[nH]c3ccccc23)[nH]c1=O", "hERG current change (%, negative = inhibition) at 10uM": 11.2}, {"smiles": "CC1=NN(C(=O)c2ccccc2F)C(O)(c2ccc(Cl)cc2)C1", "note": "(stereo not shown)", "hERG current change (%, negative = inhibition) at 10uM": 7.35}, {"smiles": "NC(=O)NC(=O)COC(=O)c1cccc(NS(=O)(=O)/C=C/c2ccccc2)c1", "hERG current change (%, negative = inhibition) at 10uM": -1.89}, {"smiles": "COc1ccc(-c2[nH]nc3oc(=O)cc(C)c23)cc1", "hERG current change (%, negative = inhibition) at 10uM": 3.42}, {"smiles": "CC(=O)Nc1ccc(S(=O)(=O)N2CCC(C(=O)N[C@@H](C)C(=O)NC3CCCC3)CC2)cc1", "hERG current change (%, negative = inhibition) at 10uM": 35.3}, {"smiles": "CC(C)NC(=O)c1ccccc1S(=O)c1ccccc1C#N", "note": "(stereo not shown)", "hERG current change (%, negative = inhibition) at 10uM": 9.33}, {"smiles": "COC(=O)c1ccc(C2c3c(oc4ccc(Cl)cc4c3=O)C(=O)N2CCN2CCOCC2)cc1", "note": "(stereo not shown)", "hERG current change (%, negative = inhibition) at 10uM": -35.2}]}]}
